Values of other authors, collected in patent publication US4442087A (priority 1979, dated 1984).
Read-outs that look alike come from different tables or passages of the source.

Details: cited from earlier work; for IF-inducing activity on heating: 56 °C for 5 hours; for IF-inducing activity: literature

For phytohemagglutinin, the “IF-inducing activity on heating” value is given as “inactivated”, the IF-inducing activity is given as “very weak” and the IF-inducing activity (listed as phytohemagglutinin (PHA)) is given as “extremely low”.

For pokeweed mitogen, the “IF-inducing activity on heating” value is listed as “inactivated”.
